Source: the supplement of paper PMC9151546
Most values come without repeats; read them as rough.

Assays:
CHO-K1 [1] = assay: micronucleus frequency (% of nucleated events); higher = more micronuclei (genotoxic)
CHO-K1 [2] = assay: relative survival (nuclei to bead ratio vs DMSO control) (% of vehicle control); higher = more surviving cells
CHO-K1 [3] = assay: hypodiploid nuclei frequency (% of nucleated events); higher = more hypodiploid events (aneugenic)
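Wherever hypodiploid nuclei frequency (% of nucleated events) is given: hypodiploid nuclei gated on a flow cytometer with 488 nm excitation after SYTOX Green staining, cultures at 37 °C, positive controls vinblastine without S9 and cyclophosphamide with S9.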
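Wherever micronucleus frequency (% of nucleated events) is given: cells lysed with nuclei stained by SYTOX Green, then micronucleus-gated events counted against nucleated events by flow cytometry with 488 nm excitation.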
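Wherever relative survival (nuclei to bead ratio vs DMSO control) is given: Lysed-cell nuclei stained with SYTOX Green and counted against counting beads by flow cytometry at 488 nm excitation, with vinblastine (no S9) and cyclophosphamide (plus S9) as positive controls.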

CC(C)C(=O)Nc1ccc([N+](=O)[O-])c(C(F)(F)F)c1 [Flutamide]
Details | hypodiploid nuclei frequency, CHO-K1 [3] [%] | micronucleus frequency, CHO-K1 [1] [%] | relative survival, CHO-K1 [2]
concentration: 4.5 (µM), S9 metabolic activation: with S9, exposure time: 3-4 hours | 0.36 | 1.7 | 84.6
concentration: 4.5 (µM), S9 metabolic activation: without S9, exposure time: 24 hours | 0.56 | 1.08 | 90.1
concentration: 5.63 (µM), S9 metabolic activation: with S9, exposure time: 3-4 hours | 0.28 | 1.36 | 94.2
concentration: 5.63 (µM), S9 metabolic activation: without S9, exposure time: 24 hours | 0.42 | 1.12 | 100
concentration: 7.04 (µM), S9 metabolic activation: with S9, exposure time: 3-4 hours | 0.4 | 1.6 | 110
concentration: 7.04 (µM), S9 metabolic activation: without S9, exposure time: 24 hours | 0.64 | 1.42 | 107
concentration: 8.8 (µM), S9 metabolic activation: with S9, exposure time: 3-4 hours | 0.38 | 2.08 | 94.4
concentration: 8.8 (µM), S9 metabolic activation: without S9, exposure time: 24 hours | 0.48 | 1.2 | 90.4
concentration: 11 (µM), S9 metabolic activation: with S9, exposure time: 3-4 hours | 0.32 | 1.62 | 103
concentration: 11 (µM), S9 metabolic activation: without S9, exposure time: 24 hours | 0.84 | 1.44 | 97
concentration: 13.7 (µM), S9 metabolic activation: with S9, exposure time: 3-4 hours | 0.3 | 1.74 | 89.3
concentration: 13.7 (µM), S9 metabolic activation: without S9, exposure time: 24 hours | 0.78 | 1.08 | 83.5
concentration: 17.2 (µM), S9 metabolic activation: with S9, exposure time: 3-4 hours | 0.4 | 1.88 | 101
concentration: 17.2 (µM), S9 metabolic activation: without S9, exposure time: 24 hours | 0.7 | 1.7 | 83.5
concentration: 21.5 (µM), S9 metabolic activation: with S9, exposure time: 3-4 hours | 0.28 | 1.66 | 99.5
concentration: 21.5 (µM), S9 metabolic activation: without S9, exposure time: 24 hours | 0.7 | 1.24 | 85
concentration: 26.8 (µM), S9 metabolic activation: with S9, exposure time: 3-4 hours | 0.4 | 0.86 | 105
concentration: 26.8 (µM), S9 metabolic activation: without S9, exposure time: 24 hours | 1.14 | 1.46 | 104
concentration: 33.6 (µM), S9 metabolic activation: with S9, exposure time: 3-4 hours | 0.24 | 0.96 | 113
concentration: 33.6 (µM), S9 metabolic activation: without S9, exposure time: 24 hours | 1.32 | 1.86 | 84.1
concentration: 41.9 (µM), S9 metabolic activation: with S9, exposure time: 3-4 hours | 0.3 | 1.38 | 100
concentration: 41.9 (µM), S9 metabolic activation: without S9, exposure time: 24 hours | 1.14 | 2.26 | 78.8
concentration: 52.4 (µM), S9 metabolic activation: with S9, exposure time: 3-4 hours | 0.36 | 1.1 | 75.6
concentration: 52.4 (µM), S9 metabolic activation: without S9, exposure time: 24 hours | 1.42 | 2.12 | 69.4
concentration: 65.5 (µM), S9 metabolic activation: with S9, exposure time: 3-4 hours | 0.34 | 1.36 | 72.3
concentration: 65.5 (µM), S9 metabolic activation: without S9, exposure time: 24 hours | 1.02 | 1.92 | 64.4
concentration: 81.9 (µM), S9 metabolic activation: with S9, exposure time: 3-4 hours | 0.28 | 1.48 | 78.1
concentration: 81.9 (µM), S9 metabolic activation: without S9, exposure time: 24 hours | 1.08 | 2.32 | 65.6
concentration: 102 (µM), S9 metabolic activation: with S9, exposure time: 3-4 hours | 0.22 | 1.04 | 78
concentration: 102 (µM), S9 metabolic activation: without S9, exposure time: 24 hours | 1.12 | 2.16 | 63.7
concentration: 128 (µM), S9 metabolic activation: with S9, exposure time: 3-4 hours | 0.18 | 1.08 | 69.4
concentration: 128 (µM), S9 metabolic activation: without S9, exposure time: 24 hours | 0.96 | 1.82 | 56.9
concentration: 160 (µM), S9 metabolic activation: with S9, exposure time: 3-4 hours | 0.34 | 1.26 | 68.6
concentration: 160 (µM), S9 metabolic activation: without S9, exposure time: 24 hours | 0.86 | 1.54 | 57.5
concentration: 200 (µM), S9 metabolic activation: with S9, exposure time: 3-4 hours | 0.2 | 1.44 | 66.2
concentration: 200 (µM), S9 metabolic activation: without S9, exposure time: 24 hours | 0.76 | 1.84 | 60.2

C[C@]12CC[C@@H]3c4ccc(O)cc4C[C@@H](CCCCCCCCC[S+]([O-])CCCC(F)(F)C(F)(F)F)[C@H]3[C@@H]1CC[C@@H]2O (some centres not stated) [Fulvestrant]
Details | hypodiploid nuclei frequency, CHO-K1 [3] [%] | micronucleus frequency, CHO-K1 [1] [%] | relative survival, CHO-K1 [2]
concentration: 2.79 (µM), S9 metabolic activation: with S9, exposure time: 3-4 hours | 0.18 | 1.42 | 102
concentration: 2.79 (µM), S9 metabolic activation: without S9, exposure time: 24 hours | 0.2 | 1.42 | 119
concentration: 3.49 (µM), S9 metabolic activation: with S9, exposure time: 3-4 hours | 0.34 | 1.46 | 110
concentration: 3.49 (µM), S9 metabolic activation: without S9, exposure time: 24 hours | 0.76 | 2.02 | 101
concentration: 4.36 (µM), S9 metabolic activation: with S9, exposure time: 3-4 hours | 0.38 | 1.42 | 106
concentration: 4.36 (µM), S9 metabolic activation: without S9, exposure time: 24 hours | 0.48 | 1.32 | 105
concentration: 5.45 (µM), S9 metabolic activation: with S9, exposure time: 3-4 hours | 0.18 | 1.44 | 90.7
concentration: 5.45 (µM), S9 metabolic activation: without S9, exposure time: 24 hours | 0.42 | 2.02 | 91.9
concentration: 6.8 (µM), S9 metabolic activation: with S9, exposure time: 3-4 hours | 0.26 | 1.7 | 106
concentration: 6.8 (µM), S9 metabolic activation: without S9, exposure time: 24 hours | 0.4 | 1.4 | 103
concentration: 8.5 (µM), S9 metabolic activation: with S9, exposure time: 3-4 hours | 0.22 | 2 | 115
concentration: 8.5 (µM), S9 metabolic activation: without S9, exposure time: 24 hours | 0.6 | 2.76 | 120
concentration: 10.7 (µM), S9 metabolic activation: with S9, exposure time: 3-4 hours | 0.32 | 2.22 | 98.6
concentration: 10.7 (µM), S9 metabolic activation: without S9, exposure time: 24 hours | 0.54 | 2.34 | 102
concentration: 13.3 (µM), S9 metabolic activation: with S9, exposure time: 3-4 hours | 0.34 | 1.94 | 103
concentration: 13.3 (µM), S9 metabolic activation: without S9, exposure time: 24 hours | 0.46 | 2.8 | 107
concentration: 16.6 (µM), S9 metabolic activation: with S9, exposure time: 3-4 hours | 0.26 | 1.7 | 126
concentration: 16.6 (µM), S9 metabolic activation: without S9, exposure time: 24 hours | 0.5 | 2.54 | 93.6
concentration: 20.8 (µM), S9 metabolic activation: with S9, exposure time: 3-4 hours | 0.22 | 1.76 | 112
concentration: 20.8 (µM), S9 metabolic activation: without S9, exposure time: 24 hours | 0.58 | 2.48 | 87.7
concentration: 26 (µM), S9 metabolic activation: with S9, exposure time: 3-4 hours | 0.32 | 2.48 | 100
concentration: 26 (µM), S9 metabolic activation: without S9, exposure time: 24 hours | 0.42 | 2.02 | 97
concentration: 32.5 (µM), S9 metabolic activation: with S9, exposure time: 3-4 hours | 0.28 | 2 | 104
concentration: 32.5 (µM), S9 metabolic activation: without S9, exposure time: 24 hours | 0.66 | 2.54 | 123
concentration: 40.6 (µM), S9 metabolic activation: with S9, exposure time: 3-4 hours | 0.48 | 2.5 | 109
concentration: 40.6 (µM), S9 metabolic activation: without S9, exposure time: 24 hours | 0.42 | 2.14 | 89.2
concentration: 50.8 (µM), S9 metabolic activation: with S9, exposure time: 3-4 hours | 0.2 | 1.5 | 106
concentration: 50.8 (µM), S9 metabolic activation: without S9, exposure time: 24 hours | 0.58 | 1.74 | 86.2
concentration: 63 (µM), S9 metabolic activation: with S9, exposure time: 3-4 hours | 0.3 | 1.84 | 132
concentration: 63 (µM), S9 metabolic activation: without S9, exposure time: 24 hours | 0.74 | 1.68 | 95.3
concentration: 79 (µM), S9 metabolic activation: with S9, exposure time: 3-4 hours | 0.26 | 2.36 | 118
concentration: 79 (µM), S9 metabolic activation: without S9, exposure time: 24 hours | 0.74 | 2.28 | 99.3
concentration: 99 (µM), S9 metabolic activation: with S9, exposure time: 3-4 hours | 0.16 | 1.72 | 156
concentration: 99 (µM), S9 metabolic activation: without S9, exposure time: 24 hours | 0.78 | 2.48 | 91.1
concentration: 124 (µM), S9 metabolic activation: with S9, exposure time: 3-4 hours | 0.42 | 1.78 | 121
concentration: 124 (µM), S9 metabolic activation: without S9, exposure time: 24 hours | 0.84 | 3.04 | 78.2

CN(C)c1ccc(C(=C2C=CC(=[N+](C)C)C=C2)c2ccc(N(C)C)cc2)cc1 [Gentian Violet]
Details | hypodiploid nuclei frequency, CHO-K1 [3] [%] | micronucleus frequency, CHO-K1 [1] [%] | relative survival, CHO-K1 [2]
concentration: 0.108 (µM), S9 metabolic activation: with S9, exposure time: 3-4 hours | 0.14 | 1.26 | 140
concentration: 0.108 (µM), S9 metabolic activation: without S9, exposure time: 24 hours | 1.02 | 2.36 | 55.3
concentration: 0.135 (µM), S9 metabolic activation: with S9, exposure time: 3-4 hours | 0.26 | 1.58 | 129
concentration: 0.135 (µM), S9 metabolic activation: without S9, exposure time: 24 hours | 1.04 | 2.5 | 59
concentration: 0.169 (µM), S9 metabolic activation: with S9, exposure time: 3-4 hours | 0.32 | 1.5 | 132
concentration: 0.169 (µM), S9 metabolic activation: without S9, exposure time: 24 hours | 1.54 | 2.86 | 54.8
concentration: 0.211 (µM), S9 metabolic activation: with S9, exposure time: 3-4 hours | 0.22 | 1.76 | 124
concentration: 0.211 (µM), S9 metabolic activation: without S9, exposure time: 24 hours | 1.74 | 2.98 | 54.6
concentration: 0.264 (µM), S9 metabolic activation: with S9, exposure time: 3-4 hours | 0.28 | 1.68 | 125
concentration: 0.264 (µM), S9 metabolic activation: without S9, exposure time: 24 hours | 3.04 | 3.46 | 44.7
concentration: 0.33 (µM), S9 metabolic activation: with S9, exposure time: 3-4 hours | 0.5 | 1.98 | 92.7
concentration: 0.33 (µM), S9 metabolic activation: without S9, exposure time: 24 hours | 3.12 | 3.64 | 40.7
concentration: 0.412 (µM), S9 metabolic activation: with S9, exposure time: 3-4 hours | 0.4 | 1.66 | 69.4
concentration: 0.412 (µM), S9 metabolic activation: without S9, exposure time: 24 hours | – | – | 34
concentration: 0.515 (µM), S9 metabolic activation: with S9, exposure time: 3-4 hours | 0.44 | 2.28 | 70.6
concentration: 0.515 (µM), S9 metabolic activation: without S9, exposure time: 24 hours | – | – | 34.7
concentration: 0.644 (µM), S9 metabolic activation: with S9, exposure time: 3-4 hours | 0.56 | 1.58 | 81.4
concentration: 0.644 (µM), S9 metabolic activation: without S9, exposure time: 24 hours | 1.08 | 1.4 | 40.2
concentration: 0.805 (µM), S9 metabolic activation: with S9, exposure time: 3-4 hours | 0.82 | 2 | 66.3
concentration: 0.805 (µM), S9 metabolic activation: without S9, exposure time: 24 hours | – | – | 22.6
concentration: 1.01 (µM), S9 metabolic activation: with S9, exposure time: 3-4 hours | 0.6 | 2.16 | 74.9
concentration: 1.01 (µM), S9 metabolic activation: without S9, exposure time: 24 hours | – | – | 9.27
concentration: 1.26 (µM), S9 metabolic activation: with S9, exposure time: 3-4 hours | 1.16 | 3.22 | 62.5
concentration: 1.26 (µM), S9 metabolic activation: without S9, exposure time: 24 hours | – | – | 8.52
concentration: 1.57 (µM), S9 metabolic activation: with S9, exposure time: 3-4 hours | 1.23 | 6.34 | 52.4
concentration: 1.57 (µM), S9 metabolic activation: without S9, exposure time: 24 hours | – | – | 5.16
concentration: 1.97 (µM), S9 metabolic activation: with S9, exposure time: 3-4 hours | – | – | 37.7
concentration: 1.97 (µM), S9 metabolic activation: without S9, exposure time: 24 hours | – | – | 0.01
concentration: 2.46 (µM), S9 metabolic activation: with S9, exposure time: 3-4 hours | – | – | 36.2
concentration: 3.07 (µM), S9 metabolic activation: with S9, exposure time: 3-4 hours | – | – | 15.7
concentration: 3.84 (µM), S9 metabolic activation: with S9, exposure time: 3-4 hours | – | – | 4.32
